{"source": "PubChem BioAssay (NCATS)", "note": "This list was built around the results that the source calls inconclusive (neither active nor inactive); the mix of calls is not that of the screen. Potencies of inconclusive entries are doubtful fits and often do not repeat. Calls of active or inactive are those of the source. Calls follow the shape of the dose curve; as a rule, active = well fitted curve in the direction sought with a large enough effect; inconclusive = small, poorly fitted or top-dose-only effect, or another doubt; inactive = no such curve, though single readings can be large; an effect the other way counts as inactive or inconclusive. Potency is read from the fitted curve at half-maximal effect; tags tell the direction and shape of the fitted curve.", "data": [{"assay": "BET inhibitor-based combinations targeting novel dependencies in MECOM-rearranged (r) AML: UCSD-AML1 cell line (AID 2202235); also: nearly all actives have a fitted effect of over 40% in size;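 as to viability (% of control): plate controls were DMSO vehicle wells for no effect and blank wells for full effect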", "conditions": "UCSD-AML1 AML cells viability, CellTiter-Glo, 48 h; viability (% of control): at 46 µM (top of the series)", "how_it_was_run": "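Cells were plated at 500 per well and exposed to each drug across an 11-point dose range for 48 hr at standard incubator conditions. Viability was read by CellTiter-Glo luminescence, and activity was expressed as AUC and per-cell-line Z-transformed AUC.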", "values": [{"smiles": "Cn1c(=O)c(Oc2ccc(F)cc2F)cc2cnc(NC3CCOCC3)nc21", "viability (% of control)": "inactive: 107%"}, {"smiles": "O=c1cc(N2CCOCC2)oc2c(-c3ccc4c(c3)OCCO4)csc12", "Potency": "active: 3.32 µM"}, {"smiles": "COc1ccc(-c2cc(=O)c3c(O)cc(O[C@@H]4O[C@H](CO[C@@H]5O[C@@H](C)[C@H](O)[C@@H](O)[C@H]5O)[C@@H](O)[C@H](O)[C@H]4O)cc3o2)cc1O", "viability (% of control)": "inactive: 107%"}, {"smiles": "CC(=O)NCC(=O)N1[C@@H]2CC[C@H]1c1ccc(Nc3ncc(C(F)(F)F)c(NC4CCC4)n3)cc12", "Potency": "active: 0.934 µM"}, {"smiles": "CSC[C@H]1CN(Cc2c[nH]c3c(N)ncnc23)C[C@@H]1O", "viability (% of control)": "inactive: 90.7%"}, {"smiles": "CC1(C)CC[C@]2(C(=O)O)CC[C@]3(C)C(=CC[C@@H]4[C@@]5(C)C[C@@H](O)[C@H](O)C(C)(C)[C@@H]5CC[C@]43C)[C@@H]2C1", "viability (% of control)": "inactive: 109%"}, {"smiles": "COCCn1c2c([n+](Cc3cnccn3)c1C)C(=O)c1ccccc1C2=O", "Potency": "active: 0.105 µM"}, {"smiles": "C=C1[C@H](CO)[C@@H](O)C[C@@H]1n1cnc2c(=O)[nH]c(N)nc21", "Potency": "inconclusive: 29.5 µM [inhibitor, partial curve, poor fit]"}, {"smiles": "CCc1cc(C(N)=O)ccc1-n1nc(C(C)C)c2c(-n3cnc(-c4cnn(C)c4)c3)ccnc21", "Potency": "active: 1.86 µM"}, {"smiles": "O=C1CCCC(=O)C1C(=O)c1ccc(C(F)(F)F)cc1[N+](=O)[O-]", "viability (% of control)": "inactive: 99.7%"}, {"smiles": "OCCCNc1cc(-c2ccnc(Nc3cccc(Cl)c3)n2)ccn1", "Potency": "active: 0.0833 µM"}, {"smiles": "CN(C)CCN1C(=O)c2cccc3cc(N)cc(c23)C1=O", "Potency": "inconclusive: 9.34 µM [inhibitor, partial curve, poor fit]"}, {"smiles": "Cc1ccc(NC(=O)NCc2ccc3c(c2)CN(C2CCC(=O)NC2=O)C3=O)cc1Cl", "note": "(configuration not stated)", "Potency": "inconclusive: 0.0012 µM [inhibitor, full curve]"}]}, {"assay": "BET inhibitor-based combinations targeting novel dependencies in MECOM-rearranged (r) AML: AML-191 cell line (AID 2202236; also: nearly all actives have a fitted effect of over 35% in size;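 as to viability (% of control): plate controls were vehicle wells for no effect and wells without cells for full effect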)", "conditions": "AML-191 viability, CellTiter-Glo luminescence, 48 h; series mostly up to 46 µM; viability (% of control): at the top concentration", "how_it_was_run": "(§1)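 500 cells/well; 11-pt dose curve; 48 h, standard incubator; CellTiter-Glo luminescence after 15 min RT; DMSO/empty-well normalization; AUC plus Z-AUC (mean-centered within each line).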", "values": [{"smiles": "CN(C)CC(C)(C)CNc1nn2c(-c3ccccc3)nnc2cc1C1CCC1", "viability (% of control)": "inactive: 107%"}, {"smiles": "COc1cc(OC)c(NC(=O)Nc2cc(C)on2)cc1Cl", "viability (% of control)": "inactive: 93.9%"}, {"smiles": "NC[C@H]1O[C@H](O[C@H]2[C@H](O)[C@@H](O[C@H]3O[C@H](CO)[C@@H](O)[C@H](N)[C@H]3O)[C@H](N)C[C@@H]2N)[C@H](N)C[C@@H]1O", "viability (% of control)": "inactive: 87.7%"}, {"smiles": "O=C(c1ccc(F)cc1)N1CCC[C@H](c2nc(-c3ccc(F)cc3)no2)C1", "Potency": "inconclusive: 18.6 µM [inhibitor, partial curve, poor fit]"}, {"smiles": "O=C1[C@H](Cc2ccc(O)cc2)N2C(=O)CCN(C(=O)NCc3ccccc3)[C@H]2CN1Cc1cccc2ccccc12", "Potency": "inconclusive: 7.42 µM [inhibitor, full curve]"}, {"smiles": "C=C1[C@H](OC(=O)/C=C(\\C)CC)C[C@@H](C(C)C)[C@@H]2[C@H]([C@@H](C)OC(C)=O)C(=O)C[C@@H]12", "Potency": "inconclusive: 29.5 µM [inhibitor, single point]"}, {"smiles": "COc1cc(Nc2nc3ccccc3nc2NS(=O)(=O)c2ccc(NC(=O)c3ccc(C)c(OC)c3)cc2)cc(OC)c1", "Potency": "inconclusive: 20.9 µM [inhibitor, partial curve, poor fit]"}, {"smiles": "COc1c(N2CCNC(C)C2)c(F)cc2c(=O)c(C(=O)O)cn(C3CC3)c12", "note": "(configuration not stated)", "viability (% of control)": "inactive: 103%"}, {"smiles": "Clc1ccc(Cn2c(CN3CCCC3)nc3ccccc32)cc1", "Potency": "active: 18.6 µM"}, {"smiles": "C[C@@H](OC[C@@]1(c2ccccc2)CC[C@]2(CCC(=O)N2)CN1)c1cc(C(F)(F)F)cc(C(F)(F)F)c1", "Potency": "active: 18.6 µM"}, {"smiles": "CCC1CCCCN1C(=O)n1ncc(C(O)(c2ccccc2)c2ccccc2)n1", "note": "(configuration not stated)", "Potency": "active: 14.8 µM"}, {"smiles": "COc1cc2nccc(Oc3ccc(NC(=O)c4cn(C(C)C)c(=O)n(-c5ccc(F)cc5)c4=O)cc3F)c2cc1OC", "Potency": "inconclusive: 0.934 µM [inhibitor, full curve]"}, {"smiles": "CCOc1ccccc1N=Nc1c(C)[nH]n(-c2nc(-c3ccccc3)cs2)c1=O", "viability (% of control)": "inactive: 99.7%"}, {"smiles": "CC(=O)OCC(CCn1cnc2cnc(N)nc21)COC(C)=O", "viability (% of control)": "inactive: 102%"}, {"smiles": "COc1ccc(CCC(=O)Nc2nc3ccc(Cl)cc3s2)cc1OC", "viability (% of control)": "inactive: 105%"}, {"smiles": "C[C@]12CC[C@@H]3c4ccc(O)cc4C[C@@H](CCCCCCCCCS(=O)CCCC(F)(F)C(F)(F)F)[C@H]3[C@H]1CC[C@H]2O", "note": "(some centres not stated)", "Potency": "inconclusive: 29.5 µM [inhibitor, single point]"}]}, {"assay": "BET inhibitor-based combinations targeting novel dependencies in MECOM-rearranged (r) AML: AML-194 cell line (AID 2202237)", "conditions": "AML-194 (MECOM-r AML) viability, CellTiter-Glo, 48 h; series mostly up to 46 µM; viability (% of control): at the top concentration", "how_it_was_run": "as §1", "values": [{"smiles": "COC(=O)N(CC(=O)O)Cc1cccc(OCc2nc(-c3ccc(Cl)cc3)oc2C)c1", "viability (% of control)": "inactive: 96.8%"}, {"smiles": "CN1CCN(c2ccc(-c3cccc(CN4CCOCC4)c3)cc2NC(=O)c2c[nH]c(=O)cc2C(F)(F)F)CC1", "viability (% of control)": "inactive: 101%"}, {"smiles": "CC[C@@H](Oc1cccc(CN(CCCOc2ccc(OC)cc2)c2nc3ccccc3o2)c1)C(=O)O", "viability (% of control)": "inactive: 99.9%"}, {"smiles": "CN(C)CC(C)(C)CNc1nn2c(-c3ccccc3)nnc2cc1C1CCC1", "viability (% of control)": "inactive: 104%"}, {"smiles": "COc1cc(OC)c(NC(=O)Nc2cc(C)on2)cc1Cl", "viability (% of control)": "inactive: 95%"}, {"smiles": "O=C1OC2(CCC(C(=O)Nc3ccn(-c4ccccc4F)n3)CC2)c2cnccc21", "note": "(configuration not stated)", "Potency": "inconclusive: 13.2 µM [inhibitor, partial curve, poor fit]"}, {"smiles": "O=C(O)[C@H](CC(=O)N1C[C@H]2CCCC[C@H]2C1)Cc1ccccc1", "viability (% of control)": "inactive: 97.8%"}, {"smiles": "NC[C@H]1O[C@H](O[C@H]2[C@H](O)[C@@H](O[C@H]3O[C@H](CO)[C@@H](O)[C@H](N)[C@H]3O)[C@H](N)C[C@@H]2N)[C@H](N)C[C@@H]1O", "Potency": "inconclusive: 20.9 µM [inhibitor, partial curve, poor fit]"}, {"smiles": "O=C(c1ccc(F)cc1)N1CCC[C@H](c2nc(-c3ccc(F)cc3)no2)C1", "viability (% of control)": "inactive: 93.8%"}, {"smiles": "C[C@H]1CNCCCN1S(=O)(=O)c1cccc2cncc(F)c12", "viability (% of control)": "inactive: 100% [at 15.6 µM]"}, {"smiles": "O=C1[C@H](Cc2ccc(O)cc2)N2C(=O)CCN(C(=O)NCc3ccccc3)[C@H]2CN1Cc1cccc2ccccc12", "Potency": "inconclusive: 10.5 µM [inhibitor, partial curve]"}, {"smiles": "C=C1/C(=C/C=C2\\CCCC3(C)[C@@H]([C@H](C)/C=C/C=C/C(O)(CC)CC)CC[C@@H]23)C[C@@H](O)C[C@@H]1O", "note": "(some centres not stated)", "Potency": "inconclusive: 23.5 µM [inhibitor, partial curve, poor fit]"}, {"smiles": "Clc1cccc(-c2ccc(-c3nnc(CCCc4ccc5cccnc5n4)o3)cc2)c1", "viability (% of control)": "inactive: 107%"}, {"smiles": "COc1c(N2CCNC(C)C2)c(F)cc2c(=O)c(C(=O)O)cn(C3CC3)c12", "note": "(configuration not stated)", "viability (% of control)": "inactive: 97.8%"}, {"smiles": "Nc1nc2cc(-c3ccc4ncc(C(=O)N5CCOCC5)n4c3)ccc2o1", "Potency": "inconclusive: 14.8 µM [inhibitor, partial curve]"}, {"smiles": "Clc1ccc(Cn2c(CN3CCCC3)nc3ccccc32)cc1", "Potency": "active: 20.9 µM"}, {"smiles": "C[C@@H](OC[C@@]1(c2ccccc2)CC[C@]2(CCC(=O)N2)CN1)c1cc(C(F)(F)F)cc(C(F)(F)F)c1", "Potency": "active: 26.3 µM"}, {"smiles": "CCC1CCCCN1C(=O)n1ncc(C(O)(c2ccccc2)c2ccccc2)n1", "note": "(configuration not stated)", "Potency": "inconclusive: 13.2 µM [inhibitor, partial curve]"}, {"smiles": "CC(=O)OCC(CCn1cnc2cnc(N)nc21)COC(C)=O", "viability (% of control)": "inactive: 107%"}, {"smiles": "COc1ccc(CCC(=O)Nc2nc3ccc(Cl)cc3s2)cc1OC", "viability (% of control)": "inactive: 99.4%"}, {"smiles": "C[C@]12CC[C@@H]3c4ccc(O)cc4C[C@@H](CCCCCCCCCS(=O)CCCC(F)(F)C(F)(F)F)[C@H]3[C@H]1CC[C@H]2O", "note": "(some centres not stated)", "viability (% of control)": "inactive: 104%"}, {"smiles": "CCCC1OC2C[C@@H]3[C@H]4CCC5=CC(=O)C=C[C@]5(C)[C@H]4C(O)C[C@]3(C)[C@]2(C(=O)CO)O1", "note": "(some centres not stated)", "Potency": "inconclusive: 0.0295 µM [inhibitor, full curve, poor fit]"}, {"smiles": "COc1ccc(/C=C\\c2cc(OC)c(OC)c(OC)c2)cc1O", "Potency": "inconclusive: 0.0118 µM [inhibitor, full curve, poor fit]"}]}]}
